Some of the results follow. Cleavage of a single-stranded DNA pool by Rep nickase domains was read by sequencing (1 h at 37 °C, 3 µM enzyme); the outer parts of the 90-letter strands are left off. The score is log2 (uncut reads / reads without enzyme); strong cutting gives strongly negative numbers. There is no active / inactive call. Reads are scaled to the total; values above 0 arise when much of the pool is cut.
These sequences were tested on T1, Rep nickase domain of tomato golden mosaic virus (assay: uncleaved DNA left, log2 of reads against the no-enzyme library (log2 ratio); higher = less cleavage (more negative = more Rep cleavage of the k-mer); sequences stand for … in CTCGTCCG…ACCGGAGA).
T1 sequence (residues 1-124 of Rep, tag left off): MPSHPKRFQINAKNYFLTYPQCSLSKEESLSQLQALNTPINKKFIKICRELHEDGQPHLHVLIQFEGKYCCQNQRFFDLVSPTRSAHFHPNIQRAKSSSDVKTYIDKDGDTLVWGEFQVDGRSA
Method: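 A pool of 90-nt single-stranded DNAs with seven random bases just before the constant AC of the nick site (name = the seven bases) was cut by 3 µM recombinant His6-SUMO-tagged Rep nickase domain (300 nM DNA, 50 mM HEPES pH 8.0, 50 mM NaCl, 1 mM MnCl2, 1 h, 37 °C, three replicates). Uncut DNA was amplified and sequenced.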

Sequence | uncleaved DNA left (log2)
ACCATTT | 0.0331
AAAATTG | 0.0768
ACCGCCG | -0.0657
GCGGTGC | -0.00132
TTATTAC | -0.25
TGGCGGC | 0.0472
TAGCGGG | 0.0486
CTCGGGG | 0.0541
GTAATGC | 0.1
CAGCACC | -0.1
ACCCTTT | -0.0197
CCGCTGG | -0.0499
CTAGCGT | -0.000184
GGTGCAT | -0.0839
GGATCCC | 0.00627
CGGTAGA | -0.0198
GCATAAA | 0.0551
CCTATTC | -0.0665
GGCGCTA | -0.0273
CCCGGTA | 0.0916

Sequence | uncleaved DNA left (log2)
ACGGTGC | 0.0747
CCTGTGC | -0.101
CCCAAGA | 0.00193
TACATAT | -0.123
GCGGCAA | 0.084
ACCGCAA | -0.000746
CAATGCG | 0.0351
TTTTAGT | -0.0668
AGCGCGG | 0.103
TCCTGTC | 0.184
TCTAGCT | -0.0646
TTCGGTC | 0.0725
CATTTTC | 0.0775
GAACCGC | 0.0047
TAAAAAA | 0.0237
CACATAT | -0.084
CCTGCGG | 0.154
CAGCTTT | -0.102
TCTCCGC | 0.0423
GCCGAAT | 0.139

— the supplement of paper PMC7826260
